The term AC50 denotes the midpoint of the concentration-response curve, whichever way the signal moves.

20 molecules from PubChem BioAssay (NCATS) can be followed below.

Test [1] in a line: qHTS Assay for Lipid Storage Modulators (AID 1519). To be noted: Drosophila S3 cells, BODIPY lipid droplet/cell ratio, laser cytometry, cells loaded with oleic acid. The method, boiled down: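 Cells seeded at 5,000 per well were treated with compounds over a concentration series and loaded with oleic acid (400 uM, as added). Lipid droplet fluorescence (488 nm excitation, 500-530 nm channel) was read by laser-scanning cytometry and normalized to 20 uM Triacsin C.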

A short description of test [2]: S16 Schwann cell PMP22 intronic element beta-lactamase assay (AID 624044). Note: nearly all actives have a fitted effect of over 15% in size. To be noted: S16 rat Schwann cells, PMP22 element beta-lactamase FRET, 24 h. In outline:
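Rat S16 Schwann cells with beta-Lac driven by a PMP22 intronic element, compound-treated 24 h at 37 °C. LiveBLAzer FRET B/G read: 460 nm normalized to potassium clavulanate vs DMSO; 535 nm FRET as viability; concentration-effect curves classified.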

A short description of test [3]: qHTS Assay for Inhibitors of PDE-IV (AID 607).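 Note: parental cells stimulated with forskolin 10 µM plus RO 20-1724 100 µM.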 To be noted: HEK293 ACTOne CNG channel cells, membrane potential fluorescence; measured here: parental cell counter-screen. The method, boiled down:
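Cell-based read-out of cAMP via a modified cyclic nucleotide-gated channel and membrane potential dye (535/590 nm) in HEK293 cells expressing PDE4 endogenously. Compounds tested up to 22.9 uM final; 100 uM RO 20-1724 reference.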
A general note: In qHTS, concentration-response curves come from the screen itself.

Test [4] can be described thus: qHTS Validation Assay to Find Inhibitors of Chronic Active B-Cell Receptor Signaling (AID 485345). To be noted: ABC-DLBCL cells, chronic BCR signaling reporter; measured here: CBG/CBR ratio read-out. In outline:
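TMD8 ABC-DLBCL cells stably carrying doxycycline-inducible IkappaBalpha–green luciferase fusion plus unfused red luciferase; compounds 46 uM to 3 nM, 4 h at 37C with doxycycline. Corrected green/red luminescence ratio normalized to 10 uM MG-132 and basal cell wells; curves fitted.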

Where [5] appears, read: measured here: cell count channel max response.
Setting [6] is: measured here: lipid (BODIPY) channel AC50.
Where [7] appears, read: measured here: lipid channel max response.
Setting [8] is: measured here: 460 nm blue channel.
The mark [9] stands for this setting: measured here: cell number channel AC50.

The other results are listed elsewhere or left out. Shown are side measurements of this screen, not its main read-out; they come without a call. Compounds called inactive in the main read-out are mostly missing here. Potencies come from curve fits of mixed quality, noted in brackets.
Tags give direction and shape of the fitted curve.

Regarding `COc1c2occc2c(OC)c2c(=O)cc(C)oc12`, the max response in test [1] (setting [5]) was determined as 14.5%; in test [1] (setting [7]), 39.6%. Moreover, the concentration at half-maximal activity (AC50) is 0.562 µM [rising, full curve] in test [1] (setting [6]) and 6.73 µM [falling, single point] in test [2] (setting [8]).

Take `C=C(NC(=O)C(=C)NC(=O)c1csc(C2=N[C@@H]3c4csc(n4)[C@@H]4NC(=O)c5csc(n5)[C@@H]([C@](C)(O)[C@H](C)O)NC(=O)[C@@H]5CSC(=N5)/C(=C/C)NC(=O)[C@@H]([C@H](C)O)NC(=O)c5csc(n5)[C@]3(CC2)NC(=O)[C@@H](C)NC(=O)C(=C)NC(=O)[C@@H](C)NC(=O)[C@@H]([C@@H](C)CC)N[C@H]2C=Cc3c([C@H](C)O)cc(nc3[C@@H]2O)C(=O)O[C@H]4C)n1)C(N)=O`: the max response in test [1] (setting [5]) is 5.71%; in test [1] (setting [7]), -69.3%. For the same molecule, the AC50 in test [1] (setting [6]) was 14.1 µM [falling, single point]; in test [2] (setting [8]), 13.4 µM [falling, single point].

For the molecule `COc1cccc(Cn2c(=O)c(-c3ccccc3)nc3cnc(N(C)C)nc32)c1`, the AC50 is 0.0631 µM [rising, single point] in test [3] and 0.316 µM [rising, full curve] in test [1] (setting [6]). The max response in test [1] (setting [5]) was 0.719%; in test [1] (setting [7]), 1.38%.

Turning to `COc1cccc(-c2ccc3ncnc(NCc4ccc(OC)cc4OC)c3c2)c1`, the AC50 is 10 µM [rising, single point] in test [3] and 2.24 µM [rising, single point] in test [1] (setting [6]). Further, the max response came to 17.9% in test [1] (setting [5]) and 14.6% in test [1] (setting [7]).

For the molecule `COc1ccc(CNc2nc(-c3ccccc3CN(C)C)nc3ccccc23)c(OC)c1`, the concentration at half-maximal activity (AC50) was 7.94 µM [rising, partial curve] in test [3] and 35.5 µM [falling, single point] in test [1] (setting [6]). Also, the max response is -22.6% in test [1] (setting [5]) and -40.9% in test [1] (setting [7]).

Consider `CCCCCCCCCCCC(CC1OC(=O)C1CCCCCC)OC(=O)C(CC(C)C)NC=O` (configuration not stated), for which the figures for the max response in test [1] (setting [5]) and in test [1] (setting [7]) were 33% and 1.88%, respectively. The AC50 was 20 µM [rising, partial curve, poor fit] in test [1] (setting [9]) and 12.6 µM [falling, partial curve] in test [2] (setting [8]).

As for `CN(C)CCN(Cc1cccs1)c1ccccn1`, the figures for the max response in test [1] (setting [5]) and in test [1] (setting [7]) were 56.9% and 53.9%, respectively. Moreover, the AC50 was 39.8 µM [rising, partial curve, poor fit] in test [1] (setting [9]) and 2.24 µM [falling, partial curve, poor fit] in test [2] (setting [8]).

As to `OCC1O[C@H](Oc2ccc(O)cc2)C(O)C(O)C1O` (some centres not stated), the values for the max response in test [1] (setting [5]) and in test [1] (setting [7]) were 10.2% and 25.3%, respectively. Further, the AC50 in test [1] (setting [6]) is 3.55 µM [rising, partial curve, poor fit]; in test [2] (setting [8]), 25.1 µM [falling, single point].

Regarding `COc1ccc(CNc2ccnc(-c3ccccc3OC)n2)c(OC)c1`, the AC50 was 12.6 µM [rising, single point] in test [3] and 1.41 µM [rising, full curve] in test [1] (setting [6]). The max response in test [1] (setting [5]) was determined as 10.1%; in test [1] (setting [7]), 10.9%.

Take `c1ccc(CNc2ncncc2-c2ccc3c(c2)OCO3)cc1`: the AC50 in test [3] is 7.94 µM [rising, partial curve]; in test [1] (setting [6]), 1.58 µM [rising, partial curve]. For the same molecule, the max response in test [1] (setting [5]) came to 10.6%; in test [1] (setting [7]), 12%.

With `NCCS`, the values for the max response in test [1] (setting [5]) and in test [1] (setting [7]) were 24.8% and 31.8%, respectively. The AC50 in test [1] (setting [6]) was 39.8 µM [rising, single point]; in test [2] (setting [8]), 0.0199 µM [falling, full curve, poor fit].

With `OCC1O[C@H](O[C@H]2C(O)C(O)C(O)O[C@@H]2CO)C(O)C(O)C1O` (some centres not stated), the max response is 23.9% in test [1] (setting [5]) and 36.5% in test [1] (setting [7]). The AC50 is 15.8 µM [rising, partial curve] in test [1] (setting [6]) and 0.0501 µM [falling, full curve, poor fit] in test [2] (setting [8]).

Consider `CCCCCCCCC(=O)NCc1cc(OC)c(O)cc1I`, for which the AC50 in test [3] is 20 µM [rising, single point]; in test [1] (setting [6]), 35.5 µM [rising, partial curve, poor fit]. The max response in test [1] (setting [5]) was found to be 48.1%; in test [1] (setting [7]) it was 78.3%.

`CN(C)C(=O)Nc1ccc(Cl)c(Cl)c1`: the max response in test [1] (setting [5]) came out at 27.5%; in test [1] (setting [7]), 40.1%. Besides, the AC50 in test [1] (setting [6]) is 17.8 µM [rising, partial curve]; in test [2] (setting [8]), 0.891 µM [falling, full curve, poor fit]; in test [2] (measured here: 530 nm viability channel) it was 1.26 µM [falling, full curve, poor fit].

Turning to `CC[C@@]1(O)CC2CN(CCc3c([nH]c4ccccc34)[C@](C(=O)OC)(c3cc4c(cc3OC)N(C)C3[C@@](O)(C(=O)OC)C(OC(C)=O)[C@]5(CC)C=CCN6CC[C@@]43C65)C2)C1` (some centres not stated), the max response in test [1] (setting [5]) amounted to 23.2%; in test [1] (setting [7]), 35.2%. Moreover, the concentration at half-maximal activity (AC50) in test [1] (setting [6]) is 39.8 µM [rising, single point]; in test [2] (setting [8]), 0.562 µM [falling, full curve].

Turning to `Cc1c(Nc2ncccc2C(=O)O)cccc1C(F)(F)F`, the max response in test [1] (setting [5]) is 25.7%; in test [1] (setting [7]) it was 48.3%. In addition, the AC50 in test [1] (setting [6]) is 31.6 µM [rising, partial curve, poor fit]; in test [2] (setting [8]), 10.7 µM [falling, single point].

For `COC(=O)N1CCC2(CCCN(C(=O)Nc3ccccc3)C2)CC1`, the AC50 in test [3] was 0.0316 µM [falling, full curve, poor fit]; in test [1] (setting [6]), 3.55 µM [rising, single point]. Further, the max response in test [1] (setting [5]) was determined as 10.2%; in test [1] (setting [7]), 12.1%.

Consider `CN(C)CCC=C1c2ccccc2C=Cc2ccccc21`, for which the AC50 in test [3] was 10 µM [rising, single point].

Turning to `CCc1cccc(N(C)C(N)=Nc2cccc3ccccc23)c1`, the AC50 in test [3] is 12.6 µM [rising, partial curve].

Consider `NC(=NCc1ccccc1)NC(=O)c1nc(Cl)c(N)nc1N`, for which the AC50 in test [4] is 29.1 µM [falling, single point].
